# Data as given in PubChem BioAssay AID686979 (National Center for Advancing Translational Sciences (NCATS), 2013).
# The campaign covered roughly 420,000 compounds. About 50,000 (12%) were called active. The inconclusive results got no clear call from the source; some entries with a clear call stand among them for comparison. Calls come from the whole dose curve; as a rule, active = well fitted inhibition curve with a large enough effect; inconclusive = small, poorly fitted or top-dose-only effect; inactive = flat fitted curve, though single readings scatter. Potencies of inconclusive entries are left out as doubtful fits. Where a structure was tested more than once in an assay, its records may differ in their call.
# Experiment: qHTS for Inhibitors of human tyrosyl-DNA phosphodiesterase 1 (TDP1): qHTS in cells in presence of CPT; note: nearly all actives have a fitted effect of over 55% in size
# Conditions: chicken DT40 Tdp1-/-;hTDP1 cells + 20 nM CPT, ATP luminescence, 48 h; activity change, negative = growth inhibition: at 46.2 µM (top of the series) unless noted
# Procedure, shortened: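 Chicken DT40 Tdp1-/- cells complemented with human TDP1, 400 cells/well, exposed to compounds plus 20 nM camptothecin for at least 48 h at 37 C; viability read as ATP content by CellTiter-Glo luminescence.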
# % is set by controls: 0 for no effect and ±100 for the full control effect; potency is the fitted concentration of half-maximal effect; tags give direction and shape of the fitted curve.
Compound,Potency,"activity change, negative = growth inhibition"
O=C1CCCc2cc(S(=O)(=O)NCC3CCC(C(=O)Nc4ccccc4F)CC3)ccc2N1 (configuration not stated),"inconclusive [inhibitor, single point]",
Cc1ccc(C)c(SCC(=O)c2ccc[nH]2)c1,,inconclusive: -30.3% [inhibitor]
O=C(NNC(=S)NC1CCCCC1)c1ccc2c(c1)OCO2,"inconclusive [inhibitor, single point]",
CNC(=O)c1cc(Nc2nnc(-c3ccc(O)cc3)c3ccccc23)ccc1OC,active: 16.4 µM,
Clc1ccc(N2CCN(c3ncnc4c3oc3ccccc34)CC2)cc1,active: 20.6 µM,
COc1ccccc1NC(=O)Nc1nc(CC(=O)NCc2ccc(F)cc2)cs1,active: 9.2 µM,
Fc1cc(Br)ccc1Nc1c2c(nc3nc(-c4cccs4)nn13)CCCC2,active: 20.6 µM,
CS(=O)(=O)N(CC(=O)NCCSCc1ccccc1Cl)c1ccc(F)cc1,"inconclusive [inhibitor, partial curve]",
COc1ccccc1N1C(=NC(=O)CCC2CCCC2)SC2CS(=O)(=O)CC21 (configuration not stated),,inactive: -0.0237%
C/C(=N\Nc1cccc(C(=O)O)c1)c1ccc2c(c1)Nc1ccccc1S2,,inconclusive: -34.6% [inhibitor]
Cc1ccc(CNC(=O)c2ccccc2NC(=O)CN2CC(C)OC(C)C2)cc1 (configuration not stated),,inactive: 1.68%
Cc1ccc2c(c1)N(CC(=O)NC1CCCCC1)C(=O)c1cccnc1O2,,inactive: 4.6%
COc1ccc(-c2nc3ccc(NC(C)=O)cc3c(=O)n2Cc2ccccc2)cc1COc1ccc(NC(C)=O)cc1,"inconclusive [inhibitor, single point]",
Cc1nc2ccc([N+](=O)[O-])cc2c(=O)n1Cc1cccc(Br)c1,"inconclusive [inhibitor, single point]",
CCc1cccc(C)c1NC(=O)CN(C)Cc1ccc(Br)cc1,active: 20.6 µM,
CC(C)NC(=O)c1ccc(-c2cccc(C(F)(F)F)c2)o1,,inactive: 8.67%
CS(=O)(=O)N(CC(=O)N1CCN(Cc2ccc3c(c2)OCO3)CC1)Cc1ccc(Cl)cc1,active: 11.2 µM,
Cc1ccc(C(=O)Nc2cccc(C(=O)N/N=C/c3ccccc3F)c2)cc1,"inconclusive [inhibitor, single point]",
Cc1[nH]c(C)c(S(=O)(=O)N2CCN(c3ccccc3F)CC2)c1C(=O)N1CCCCC1,,inconclusive: -30.5% [inhibitor]
COC(=O)c1ccc(OC)c(Cn2c(=O)n(Cc3ccccc3)c(=O)c3c2c2cc(OC)ccc2n3C)c1,,inactive: -27.3%
COc1cccc2sc(N(CCN(C)C)C(=O)c3ccc4c(c3)CCCC4)nc12,"inconclusive [inhibitor, single point]",
CCN(CC)C(=O)c1ccc(-c2nnc(Nc3ccc(C(=O)N(C)C)cc3)c3ccccc23)cc1,"inconclusive [inhibitor, single point]",
CCCCc1cc(=O)oc2cc(C)c(CN3CCCC3)c(O)c12,,inactive: -29.4%
CCOC(=O)c1c(-c2ccc(C)o2)csc1NC(=O)CSc1nnc(C)s1,"inconclusive [inhibitor, single point]",

Compound,Potency,"activity change, negative = growth inhibition"
Cc1cc(C)c(S(=O)(=O)N2CCC(C(=O)NCc3ccc(Cl)cc3Cl)CC2)c(C)c1,"inconclusive [inhibitor, single point]",
CC(=O)c1ccc(NC(=O)C2=CC(c3ccc4c(c3)OCO4)=NS(=O)(=O)N2C)cc1,"inconclusive [inhibitor, single point]",
Cc1ccc2c(CN(C)Cc3cccc(F)c3)cc(=O)oc2c1,,inactive: -0.574%
COc1ccc(/C=C/C(=O)c2cc(F)ccc2OC(=O)c2ccccc2OC)cc1OC,active: 4.11 µM,
Cn1c(-c2ccccc2O)cc2ccccc21,"inconclusive [inhibitor, single point]",
O=c1n(Cc2cccc(C(F)(F)F)c2)c2ccccc2c2nc(-c3ccccc3)nn12,active: 23.1 µM,
COC(=O)COc1cccc2c(=O)n(CC(=O)NCc3ccccc3)ccc12,active: 1.84 µM,
Cc1ccc(-c2ccc(CCC(=O)O)n2-c2cccc(O)c2)cc1,,inconclusive: -32.1% [inhibitor]
CN1CCN(CCCNC(=O)c2ccc(/C=C3\Oc4ccccc4N(Cc4ccccc4F)C3=O)cc2)CC1,"inconclusive [inhibitor, single point]",
COc1ccc(C(=O)Nc2c(F)c(F)c(F)c(F)c2F)cc1OC,,inactive: -21.8%
COc1ccc2c(c1OC)C(=O)N1C2SC(C)(C)[C@H]1C(=O)NCCCOC(C)C (some centres not stated),,inactive: -9.2%
CC(SCc1ccccc1)C(=O)N/N=C/c1ccc(OCC(=O)NCc2ccco2)cc1 (configuration not stated),"inconclusive [inhibitor, single point]",
Cc1cccc(-c2noc(CN(C(=O)c3ccc4c(c3)OCO4)C(C)C)n2)c1,active: 18.4 µM,
Cc1cc(C)n(-c2ccc(C(=O)Nc3cccnc3Cl)cc2)n1,"inconclusive [inhibitor, single point]",
COc1ccc(CNC(=O)CCc2c(C)nc3cc(-c4ccccc4OC)nn3c2C)cc1,"inconclusive [inhibitor, partial curve]",
Nc1nnc(Cc2ccc(Cl)c(Cl)c2)s1,,inactive: -7.41%
O=C1c2ccccc2C(=O)c2c1cccc2N1CCCC1,"inconclusive [inhibitor, single point]",
COc1ccc(-c2ccc(=O)n(CC(=O)Nc3ccc(C)cc3C)n2)cc1,,inactive: -19.3%
Cc1oc2cc3oc(=O)c(CCC(=O)N(C)CC(=O)O)c(C)c3cc2c1C,,inactive: 14.1%
COc1ccc(S(=O)(=O)Nc2cccc3c2O[C@H](CN(C)S(=O)(=O)c2ccc(F)cc2)[C@H](C)CN([C@H](C)CO)C3=O)cc1,"inconclusive [inhibitor, single point]",
COc1ccccc1C(=O)NCCCNC(=O)c1cccnc1,,inactive: -20.2%
C=CCNC(=O)c1ccc(C(=O)c2ccccc2)cc1,"inconclusive [inhibitor, single point]",
CC(C)c1ccc(N2C(=O)CC(Sc3nc4ccccc4o3)C2=O)cc1 (configuration not stated),active: 4.61 µM,
